# Experimental data as given in paper PMC4336329 (PLoS ONE, 2015).
# In all, about 310,000 compounds went through this assay and about 2,200 (0.71%) showed an effect of 50% or more. The effect is printed as a negative number. The list shows a part of the results.
# Biological target: human ether-à-go-go-related gene (hERG) potassium channel (human, UniProt Q12809)
# Test: primary screen, population patch clamp on CHO cells stably expressing hERG
# human ether-à-go-go-related gene (hERG) potassium channel, sequence (Q12809 whole entry, looked up): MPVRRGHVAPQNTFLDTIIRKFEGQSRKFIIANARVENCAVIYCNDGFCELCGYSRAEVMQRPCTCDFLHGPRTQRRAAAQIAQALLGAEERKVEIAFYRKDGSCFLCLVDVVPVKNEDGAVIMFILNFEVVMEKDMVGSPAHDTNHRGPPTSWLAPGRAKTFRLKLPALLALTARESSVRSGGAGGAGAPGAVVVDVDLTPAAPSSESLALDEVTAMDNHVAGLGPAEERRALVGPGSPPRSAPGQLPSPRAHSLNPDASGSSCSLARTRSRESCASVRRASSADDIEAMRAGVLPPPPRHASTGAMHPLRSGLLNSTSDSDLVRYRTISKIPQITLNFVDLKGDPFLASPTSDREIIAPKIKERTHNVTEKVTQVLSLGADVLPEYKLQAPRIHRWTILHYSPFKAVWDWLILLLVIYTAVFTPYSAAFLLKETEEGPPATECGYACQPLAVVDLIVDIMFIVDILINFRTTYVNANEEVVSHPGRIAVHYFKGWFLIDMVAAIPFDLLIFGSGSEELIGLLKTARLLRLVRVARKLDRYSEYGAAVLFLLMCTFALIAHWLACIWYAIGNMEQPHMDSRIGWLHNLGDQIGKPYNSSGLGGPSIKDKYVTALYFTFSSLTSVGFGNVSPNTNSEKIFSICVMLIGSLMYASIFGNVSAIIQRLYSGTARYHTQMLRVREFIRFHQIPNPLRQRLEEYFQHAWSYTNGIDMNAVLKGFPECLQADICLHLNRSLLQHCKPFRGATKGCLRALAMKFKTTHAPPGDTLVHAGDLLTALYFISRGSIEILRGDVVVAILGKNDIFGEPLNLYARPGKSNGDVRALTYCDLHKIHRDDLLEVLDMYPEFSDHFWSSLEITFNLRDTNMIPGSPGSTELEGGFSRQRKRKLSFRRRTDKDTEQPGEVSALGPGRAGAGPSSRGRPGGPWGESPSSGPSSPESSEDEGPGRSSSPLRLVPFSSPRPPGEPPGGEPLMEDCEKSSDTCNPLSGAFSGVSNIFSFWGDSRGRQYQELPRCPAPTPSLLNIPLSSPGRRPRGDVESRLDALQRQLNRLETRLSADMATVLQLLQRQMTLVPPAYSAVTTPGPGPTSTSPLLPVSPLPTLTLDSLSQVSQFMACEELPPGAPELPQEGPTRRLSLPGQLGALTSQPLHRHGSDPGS
row,SMILES,"hERG current change (%, negative = inhibition) at 1uM [%]"
1,CC(=O)Nc1ccc(NC(=O)C2CCN(C(=O)C3CC(=O)N(c4ccc(C)cc4)C3)CC2)cc1 (stereo not shown),8.95
2,CCNC(=S)Nc1cc(C)ccn1,15.8
3,Cc1cn(C2CC3OCC3O2)c(=O)[nH]c1=O (stereo not shown),13.9
4,CCc1c(C)nc(N)nc1N1N=C1SCC(=O)OC,3.22
5,CC(=O)Nc1ccc(S(=O)(=O)Nc2ccc(N3CCOCC3)cc2)cc1,11.5
6,Cc1cccc(C)c1NC(=S)N(Cc1cccs1)C1CCCC1,7.2
7,CC(=O)Nc1nonc1-c1nc2ccccc2n1N(C(C)=O)C(C)=O,11.2
8,Cc1cc(C)n(C(C[N+](=O)[O-])c2ccc(Cl)cc2)n1 (stereo not shown),2.43
9,COCC1CCCN(C(=O)c2cc(COc3ccc4ncccc4c3)on2)C1 (stereo not shown),12.6
10,O=C(O)C1C2CCC(O2)C1C(=O)Nc1ccc(Cl)cc1F (stereo not shown),7.65
11,COc1ccc(S(=O)(=O)N(C)C)cc1NC(=O)CCNC(=O)c1ccco1,14.3
12,COc1ccc(NC2CC(=O)N(c3ccccc3)C2=O)cc1 (stereo not shown),-7.46
13,CN1CCN(S(=O)(=O)c2cccc(C(=O)N(C)CC(=O)Nc3ccc(F)c(F)c3F)c2)CC1,14.4
14,Cc1cccc(NC(=O)C2CC(=O)NC(Nc3nc4ccccc4s3)=N2)c1 (stereo not shown),13.7
15,CCC(=O)c1ccc(OCC(=O)c2ccc3c(c2)NC(=O)CO3)cc1,10.9
16,O=C(Cn1ncc2c([nH]c3ccccc32)c1=O)N1CCN(c2ccc(F)cc2)CC1,35.9
17,Cc1ccc(-n2ccnc2SCC(=O)c2c(N)n(C3CC3)c(=O)[nH]c2=O)cc1C,10.2
18,CN(C)c1nnnn1-c1ccc(Oc2ncc(C(F)(F)F)cc2Cl)cc1,7.84
19,COCc1cc(C)nc(SCc2nc3ccccc3c(=O)[nH]2)c1C#N,10.1
20,O=C1C=C(O)C(n2cncn2)C(c2cc(F)ccc2F)C1 (stereo not shown),16.2
21,CCCCCOc1ccc(NC(=O)CCCC(=O)O)cc1,6.65
22,Cc1ccc(S(=O)(=O)N2CCC(C(=O)Nc3ccc(S(=O)(=O)N4CCCC4)cc3)CC2)cc1,3.25

row,SMILES,"hERG current change (%, negative = inhibition) at 1uM [%]"
1,Nc1ccc(C(=O)Nc2ccc3nc(-c4ccncc4)[nH]c3c2)cc1,10.7
2,CCCCC(NC(=O)CCc1c(C)c2cc3c4c(oc3c(C)c2oc1=O)CCCC4)C(=O)O (stereo not shown),9.64
3,COc1ccc(C(=O)NC2CCCCCC2)cc1S(=O)(=O)Nc1ccc(Br)cc1,-5.35
4,CCOC(=O)N1CCc2c(sc(NC(=O)Cc3ccccc3)c2C(=O)c2ccc(OC)cc2)C1,13.5
5,Cc1ccc(S(=O)(=O)NC(=O)NN2CCCCCC2)cc1,5.75
6,Cn1cnc([N+](=O)[O-])c1Sc1ccc([N+](=O)[O-])cc1,-28.5
7,CCO/C=C1\C(=O)N(c2ccccc2)C(=O)c2ccccc21,11.7
8,CCOc1cc(C#N)ccc1OCC(=O)N1CCc2ccccc2C1,-4.72
9,CCn1c(=O)cc(OCC(=O)N2CCN(Cc3ccc4c(c3)OCO4)CC2)c2ccccc21,-4.45
10,CC(C)CN1CCN(Cc2ccc(C#CC(C)(C)O)cc2)CC1CCO (stereo not shown),5.05
11,Cc1ccc(NC(=O)CS(=O)CC(=O)N(c2ccccc2)C(C)C(=O)NC2CCCC2)cc1 (stereo not shown),-1.98
12,O=S1(=O)NC(=NCC(c2ccco2)N2CCCCC2)c2ccccc21 (stereo not shown),13
13,Cc1onc(C(=O)Nc2c(C)n(C)n(-c3ccccc3)c2=O)c1[N+](=O)[O-],9.61
14,Cc1ccccc1NC(=S)NCc1ccco1,14.1
15,O=C(CN1C(=O)c2ccc([N+](=O)[O-])cc2C1=O)NC1CCS(=O)(=O)C1 (stereo not shown),-2.38
16,COc1ccc(C2=Nn3c(nnc3-c3cccnc3)SC2)cc1OC,-21.4
17,CCN(C(=O)c1cccnc1)c1ccccc1,5.96
18,Cc1cc(NS(=O)(=O)c2ccc(NC(=O)COc3ccccc3[N+](=O)[O-])cc2)no1,10.8
19,Cn1c(SCC(=O)Nc2ccc3[nH]c(=O)[nH]c3c2)nnc1-c1ccccc1,12.3
20,C=CCNc1nc(C(=O)OCC(=O)Nc2ccc(S(N)(=O)=O)cc2)cs1,4.68
21,O=c1[nH]c(=S)n(Cc2ccc(F)cc2)c(O)c1C=NCCCn1ccnc1,1.12
22,NC(=O)CCn1c(C(=O)c2cccc([N+](=O)[O-])c2)c2ccccc2[n+]1[O-],6.45

row,SMILES,"hERG current change (%, negative = inhibition) at 1uM [%]"
1,COc1ccc(-c2noc(CN3CCCC(OCc4ccccn4)C3)n2)cc1 (stereo not shown),12
2,O=C(NCc1ccco1)C1CCC(N2C(=O)C3C4CCC(C4)C3C2=O)CC1 (stereo not shown),12.2
3,CC(=O)c1ccc(OCC(O)CN(C)CCOc2ccc(Br)cc2)cc1 (stereo not shown),14.9
4,CCOC(=O)N1CCN(C(=O)Nc2ccc(NC(=O)N3CCN(C(=O)OCC)CC3)cc2)CC1,16.1
5,COC(=O)[C@H](C)NC(=O)/C=C/c1ccc(OC)cc1,5.46
6,CC(SCc1nc2sc3c(c2c(=O)[nH]1)CCCC3)C(=O)Nc1ccccn1 (stereo not shown),3.12
7,COc1ccccc1/C=C\C=N\n1c(-c2ccc(Cl)cc2)n[nH]c1=S,1.77
8,Cc1cc(N2C(=O)C(O)=C(C(=O)c3ccco3)C2c2ccccc2F)no1 (stereo not shown),9.84
9,CCOC(=O)c1ccc(NC(=O)c2ccc(OC(C)C)c(OC)c2)cc1,6.23
10,Cc1ccc(N/C=C(\C2OC(=O)c3ccccc32)[N+](=O)[O-])c(C)c1 (stereo not shown),11.7
11,Oc1ccc(-c2cn3ccccc3n2)cc1O,8.99
12,Cc1ncoc1C(=O)Nc1ccccc1-c1ccccc1,-5.73
13,CCOc1ccc(CN2C(=O)c3ccccc3C2C(=O)NCC2CCCO2)cc1 (stereo not shown),12.8
14,O=C(Cn1c(=O)sc2ccccc21)Nc1ccc(S(=O)(=O)N2CCCCC2)cc1,1.06
15,CC1(C)C(/C=C/C=C/C=C/C=C2\N(CCCCS(=O)(=O)[O-])c3ccc4ccccc4c3C2(C)C)=[N+](CCCCS(=O)(=O)[O-])c2ccc3ccccc3c21.[Na+],8.12
16,C=CCn1c(Cc2cccs2)nnc1SCC(=O)Nc1ccc(OC)c(OC)c1,13
17,CCOC(=O)N1CCN(C(=O)c2ccc3c(=O)n(-c4ccccc4F)c(=S)[nH]c3c2)CC1,10.2
18,Cc1onc(-c2ccccc2)c1C(=O)NNC(=S)NC(=O)c1ccc(F)cc1,22.4
19,Cc1ccc(NC(=O)COC(=O)c2ccc3c(c2)OCO3)cc1S(=O)(=O)N1CCCCC1,1.98
20,CC1CCN(C(=O)CSc2nnc(-c3cccnc3)n2C2CCCCC2)CC1,-7.03
21,O=C(NCC1CCCN1S(=O)(=O)c1cccs1)C(=O)Nc1ccccc1Cl (stereo not shown),11.8
22,CCOc1cccc(C(=O)N(Cc2cccc(F)c2)C2CCS(=O)(=O)C2)c1 (stereo not shown),11.6

row,SMILES,"hERG current change (%, negative = inhibition) at 1uM [%]"
1,CCCSc1cc(NCCOC(=O)CCC)c([N+](=O)[O-])c2nonc12,12
2,CCOC(=O)c1nc(NCc2ccccc2)c2ccccc2n1,4.53
3,O=C1NC2(CCCCCC2)C(=O)N1CCS(=O)(=O)Oc1ccccc1,7.3
4,COC(=O)c1ccc(Oc2nc(N(C)C)nc(N3CCOCC3)n2)cc1,6.94
5,CCC(C(=O)NC1CC1)n1nc(C)c2c(C)n(-c3ccccc3)nc2c1=O (stereo not shown),8.6
6,COC(=O)/C=C/c1cnc[nH]1,21.3
7,N=C1/C(=C\c2ccc(-c3cccc(Cl)c3)o2)C(=O)N=C2SC=C(c3ccccc3)N12,7.18
8,O=C1CC(N2CCCN(C3CC(=O)N(c4ccc(F)cc4)C3=O)CC2)C(=O)N1c1ccc(F)cc1 (stereo not shown),-3.92
9,Cc1nn(-c2ccccc2)c(C)c1/C=C/C(=O)OC(C)C(=O)Nc1ncc(Cl)cc1Cl (stereo not shown),3.27
10,CCc1ccccc1NC(=S)NC1CC2CCCC(C1)N2Cc1cccs1 (stereo not shown),0.843
11,COc1ccc(/C=C2\SC(=O)N(CCC(=O)NCCCn3ccnc3)C2=O)cc1,-2.52
12,Cc1cc(Cl)ccc1OCCCC(=O)NC1CCN(C)CC1,-18.3
13,CCOC(=O)c1c(-c2ccc(OC)c(OC)c2)csc1NC(=O)C1CCCO1 (stereo not shown),6.95
14,CC(=O)c1cc2c(cc1NC(=O)CCc1ccccc1)OCO2,9.5
15,COc1ccc(S(=O)(=O)c2snnc2C)cc1,11.5
16,O=C(NCC(O)c1ccc([N+](=O)[O-])cc1)c1cccc(S(=O)(=O)N2CCOCC2)c1 (stereo not shown),8.58
17,CC(NC(=O)/C(C#N)=C/c1ccco1)c1ccccc1 (stereo not shown),0.764
18,O=C(CCN1C(=O)c2ccccc2S1(=O)=O)N1CCN(c2cccc(Cl)c2)CC1,5.09
19,C(#Cc1ccccc1)C[N+]1(CC#Cc2cccc3ccccc23)CCCC1.[Br-],4.73
